# Reference: the supplement of paper PMC8728848
# The list shows a part of the results.
# B1: LYVE-1 (Homo sapiens), Q9Y5Y7 (protein)
# chain: MARCFSLVLLLTSIWTTRLLVQGSLRAEELSIQVSCRIMGITLVSKKANQQLNFTEAKEACRLLGLSLAGKDQVETALKASFETCSYGWVGDGFVVISRISPNPKCGKNGVGVLIWKVPVSRQFAAYCYNSSDTWTNSCIPEIITTKDPIFNTQTATQTTEFIVSDSTYSVASPYSTIPAPTTTPPAPASTSIPRRKKLICVTEVFMETSTMSTETEPFVENKAAFKNEAAGDPEVKFNWYVDGVEVHNAKPREEQYNSTYRVVSLVTVLHQDWLNGKEYKCKVSNKALPAPIEKTISKAKGQPREPQVYTLPPSRDELTKNQVSLTCLVKGFYPSDIAVEWESNGQPENNYKTTPPVLDSDGSFFLYSKLTVDKSRWQQGNVFSCSVMHEALHNHYTQRSLSLSPGK
# Columns and labels:
# Experiment in all cases: glycan array binding signal (z-score within array); higher = stronger binding
# Settings in all cases: glycan notation: IUPAC condensed, linker removed
# [1] = target: GlcNAc(b1-3)Gal(b1-4)Glc
# How it was run: (§1)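 The Consortium for Functional Glycomics database supplied 3228 glycan arrays, of which those lacking an available protein sequence were dropped. The binding signal, a within-array Z-score, was averaged across arrays of the same protein sequence and across linkers. Negative scores can be read as non-binding.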
# [2] = target: GlcNAc(b1-3)Gal(b1-4)GlcNAc
# How it was run: as §1
# [3] = target: GlcNAc(b1-3)Gal(b1-4)GlcNAc(b1-3)Gal(b1-4)GlcNAc
# How it was run: as §1
# [4] = target: GlcNAc(b1-3)GalNAc
# How it was run: as §1
# [5] = target: GlcNAc(b1-3)Man
# How it was run: as §1
# [6] = target: GlcNAc(b1-3)[GlcNAc(b1-4)][GlcNAc(b1-6)]GlcNAc
# How it was run: as §1
# [7] = target: GlcNAc(b1-3)[GlcNAc(b1-6)]Gal(b1-4)GlcNAc
# How it was run: as §1
# [8] = target: GlcNAc(b1-3)[GlcNAc(b1-6)]GalNAc
# How it was run: as §1
# [9] = target: GlcNAc(b1-4)Gal(b1-4)GlcNAc
# How it was run: as §1
# [10] = target: GlcNAc(b1-4)GlcNAc
# How it was run: as §1
# [11] = target: GlcNAc(b1-4)GlcNAc(b1-4)GlcNAc
# How it was run: as §1
# [12] = target: GlcNAc(b1-4)GlcNAc(b1-4)GlcNAc(b1-4)GlcNAc(b1-4)GlcNAc
# How it was run: as §1
# [13] = target: GlcNAc(b1-4)GlcNAc(b1-4)GlcNAc(b1-4)GlcNAc(b1-4)GlcNAc(b1-4)GlcNAc
# How it was run: as §1
# [14] = target: GlcNAc(b1-4)[GlcNAc(b1-6)]GalNAc
# How it was run: as §1
# [15] = target: GlcNAc(b1-6)Gal(b1-4)GlcNAc
# How it was run: as §1
# [16] = target: GlcNAc(b1-6)GalNAc
# How it was run: as §1
# [17] = target: GlcNAc3Prop(b1-4)GlcNAc
# How it was run: as §1
# [18] = target: Kdn(a2-3)Gal(b1-3)GlcNAc
# How it was run: as §1
# [19] = target: Kdn(a2-3)Gal(b1-4)GlcNAc
# How it was run: as §1
# [20] = target: Man(a1-2)Man(a1-2)Man(a1-3)Man
# How it was run: as §1
# [21] = target: Man(a1-2)Man(a1-2)Man(a1-6)[Man(a1-3)]Man
# How it was run: as §1
# [22] = target: Man(a1-2)Man(a1-3)Man
# How it was run: as §1
# [23] = target: Man(a1-2)Man(a1-3)[Man(a1-2)Man(a1-6)]Man
# How it was run: as §1
# [24] = target: Man(a1-2)Man(a1-3)[Man(a1-2)Man(a1-6)]Man(a1-6)[Man(a1-2)Man(a1-2)Man(a1-3)]Man
# How it was run: as §1
# [25] = target: Man(a1-2)Man(a1-3)[Man(a1-2)Man(a1-6)]Man(a1-6)[Man(a1-2)Man(a1-2)Man(a1-3)]Man(b1-4)GlcNAc(b1-4)GlcNAc
# How it was run: as §1
# [26] = target: Man(a1-2)Man(a1-3)[Man(a1-6)]Man(a1-6)[Man(a1-2)Man(a1-3)]Man(b1-4)GlcNAc(b1-4)GlcNAc
# How it was run: as §1
# [27] = target: Man(a1-2)Man(a1-6)[Man(a1-3)]Man(a1-6)[Man(a1-2)Man(a1-2)Man(a1-3)]Man
# How it was run: as §1
# [28] = target: Man(a1-2)Man(a1-6)[Man(a1-3)]Man(a1-6)[Man(a1-2)Man(a1-2)Man(a1-3)]Man(b1-4)GlcNAc(b1-4)GlcNAc
# How it was run: as §1
# [29] = target: Man(a1-3)[Man(a1-6)]Man
# How it was run: as §1
# [30] = target: Man(a1-3)[Man(a1-6)]Man(a1-6)[Man(a1-2)Man(a1-3)]Man(b1-4)GlcNAc(b1-4)GlcNAc
# How it was run: as §1
# [31] = target: Man(a1-3)[Man(a1-6)]Man(a1-6)[Man(a1-3)]Man
# How it was run: as §1
# [32] = target: Man(a1-3)[Man(a1-6)]Man(a1-6)[Man(a1-3)]Man(b1-4)GlcNAc(b1-4)GlcNAc
# How it was run: as §1
# [33] = target: Man(a1-3)[Man(a1-6)]Man(b1-4)GlcNAc(b1-4)GlcNAc
# How it was run: as §1
# [34] = target: Man(a1-6)Man
# How it was run: as §1
# [35] = target: Man(b1-4)GlcNAc
# How it was run: as §1
# [36] = target: Neu5Ac(a2-3)Gal
# How it was run: as §1
# [37] = target: Neu5Ac(a2-3)Gal(b1-3)GalNAc
# How it was run: as §1
binder,measurement,setting,value
B1,glycan array binding signal (z-score),[1],-0.266
same,glycan array binding signal (z-score),[2],0.263
same,glycan array binding signal (z-score),[3],-0.114
same,glycan array binding signal (z-score),[4],0.008
same,glycan array binding signal (z-score),[5],0.033
same,glycan array binding signal (z-score),[6],-0.378
same,glycan array binding signal (z-score),[7],-0.299
same,glycan array binding signal (z-score),[8],-0.128
same,glycan array binding signal (z-score),[9],-0.188
same,glycan array binding signal (z-score),[10],-0.326
same,glycan array binding signal (z-score),[11],0.143
same,glycan array binding signal (z-score),[12],-0.165
same,glycan array binding signal (z-score),[13],-0.624
same,glycan array binding signal (z-score),[14],-0.053
same,glycan array binding signal (z-score),[15],0.236
same,glycan array binding signal (z-score),[16],-0.343
same,glycan array binding signal (z-score),[17],-0.504
same,glycan array binding signal (z-score),[18],-0.628
same,glycan array binding signal (z-score),[19],-0.424
same,glycan array binding signal (z-score),[20],-0.485
same,glycan array binding signal (z-score),[21],-0.159
same,glycan array binding signal (z-score),[22],-0.169
same,glycan array binding signal (z-score),[23],-0.24
same,glycan array binding signal (z-score),[24],-0.23
same,glycan array binding signal (z-score),[25],0.123
same,glycan array binding signal (z-score),[26],-0.147
same,glycan array binding signal (z-score),[27],0.082
same,glycan array binding signal (z-score),[28],0.014
same,glycan array binding signal (z-score),[29],-0.046
same,glycan array binding signal (z-score),[30],0.125
same,glycan array binding signal (z-score),[31],0.238
same,glycan array binding signal (z-score),[32],0.22
same,glycan array binding signal (z-score),[33],-0.527
same,glycan array binding signal (z-score),[34],-0.026
same,glycan array binding signal (z-score),[35],-0.937
same,glycan array binding signal (z-score),[36],-0.473
same,glycan array binding signal (z-score),[37],3.93
